Test results published in the BET-seq Pho4 binding data (Le et al. 2018).
This is one part of the list. These are noisy estimates, calculated here from bound and input reads.

Biological target: T1, Pho4 (S. cerevisiae) (UniProt P07270)
T1 sequence: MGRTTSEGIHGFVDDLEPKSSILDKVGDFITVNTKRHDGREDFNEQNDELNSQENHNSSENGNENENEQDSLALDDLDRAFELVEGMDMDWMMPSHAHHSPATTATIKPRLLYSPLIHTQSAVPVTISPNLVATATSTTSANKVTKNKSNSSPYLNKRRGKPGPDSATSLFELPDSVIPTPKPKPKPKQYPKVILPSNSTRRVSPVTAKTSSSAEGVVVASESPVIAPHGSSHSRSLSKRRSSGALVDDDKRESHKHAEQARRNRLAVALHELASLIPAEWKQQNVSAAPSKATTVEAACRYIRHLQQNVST
Assay: relative binding free energy (BET-seq); higher = weaker binding
Details: reference: library average

| Sequence | relative binding free energy |
| --- | --- |
| TCATTCACGTGTTTGA | 0.29 kcal/mol |
| TTAGGCACGTGAGGTG | 0.09 kcal/mol |
| TGTGACACGTGTGCGT | -0.05 kcal/mol |
| ATGACCACGTGGGGGG | -0.18 kcal/mol |
| GGCGGCACGTGTGATA | 0.04 kcal/mol |
| TTGTGCACGTGGCGGT | -0.14 kcal/mol |
| GTGGGCACGTGTAGCT | -0.04 kcal/mol |
| ATTGTCACGTGTTATC | 0.05 kcal/mol |
| AGGAGCACGTGTGGTC | -0.13 kcal/mol |
| TGTTACACGTGGATGA | 0.08 kcal/mol |
| GTGGCCACGTGGTAAT | 0.05 kcal/mol |
| GGGTGCACGTGTAGAA | 0.09 kcal/mol |
| AGTGGCACGTGGTGAC | -0.14 kcal/mol |
| TGTGTCACGTGGTGTG | 0.06 kcal/mol |
| CGCGTCACGTGTGGAT | 0.12 kcal/mol |
| GTGGGCACGTGCTCGG | -0.26 kcal/mol |
| GTGTTCACGTGATCTG | 0.2 kcal/mol |
| ATGGACACGTGTTTGA | 0.08 kcal/mol |
| GGAGGCACGTGCAGTA | -0.07 kcal/mol |
| CAAGGCACGTGTATTT | 0.03 kcal/mol |
| TGGTACACGTGTCGAG | 0.1 kcal/mol |

| Sequence | relative binding free energy |
| --- | --- |
| GTAAGCACGTGGGCGG | -0.17 kcal/mol |
| TGACGCACGTGGTGAT | -0.11 kcal/mol |
| GTGGGCACGTGACTGG | 0.09 kcal/mol |
| GGTAGCACGTGTTTAG | -0.03 kcal/mol |
| TGGGTCACGTGCACTG | 0.08 kcal/mol |
| CTGGTCACGTGGTTAT | -0.04 kcal/mol |
| TTCTACACGTGGAGGG | -0.05 kcal/mol |
| GTTGACACGTGTTTCA | 0.1 kcal/mol |
| TTGCACACGTGGTGGT | -0.01 kcal/mol |
| GGGAACACGTGGGAGA | -0.09 kcal/mol |
| GGGGTCACGTGCGAGG | 0.22 kcal/mol |
| CTTGACACGTGTGGGA | 0.07 kcal/mol |
| TAGTGCACGTGACGTG | 0.1 kcal/mol |
| AAGGGCACGTGTTACA | -0.02 kcal/mol |
| TTTTGCACGTGTAAGG | 0.14 kcal/mol |
| TTGTCCACGTGGTTAG | 0.08 kcal/mol |
| GGGGCCACGTGAGCGT | -0.03 kcal/mol |
| TTCTGCACGTGCTAGT | -0.01 kcal/mol |
| TATATCACGTGGAGTC | 0.21 kcal/mol |
| TGCGTCACGTGCGTTG | 0.13 kcal/mol |
| GTGGGCACGTGGGACG | -0.04 kcal/mol |

| Sequence | relative binding free energy |
| --- | --- |
| TGATCCACGTGGGTTA | -0.09 kcal/mol |
| GGTTGCACGTGGTGGA | 0.06 kcal/mol |
| TGCAGCACGTGTTGAT | -0.09 kcal/mol |
| TGGGTCACGTGTTGGG | 0.19 kcal/mol |
| TGTTGCACGTGGATTA | -0.01 kcal/mol |
| TTTGGCACGTGTAAGG | -0.01 kcal/mol |
| GGAGTCACGTGGTCAG | 0.02 kcal/mol |
| TATCGCACGTGGATTG | -0.02 kcal/mol |
| CGTTTCACGTGCAAGG | 0.32 kcal/mol |
| GGGTTCACGTGGCGCA | 0.34 kcal/mol |
| GGGGTCACGTGAGAGC | 0.24 kcal/mol |
| GAAGGCACGTGGGTGT | -0.12 kcal/mol |
| TAAGGCACGTGAGATG | 0.2 kcal/mol |
| GCTGTCACGTGGTCGT | 0.21 kcal/mol |
| CGTAGCACGTGTGAAG | 0 kcal/mol |
| ATGGTCACGTGCGTGA | 0.07 kcal/mol |
| TGCTGCACGTGATGTA | 0.12 kcal/mol |
| CGAGTCACGTGAGGGT | 0.26 kcal/mol |
| CGGTTCACGTGTGAGC | 0.32 kcal/mol |
| TTGCGCACGTGGTATT | -0.14 kcal/mol |
| AAATGCACGTGAGTGC | 0.21 kcal/mol |
